This passage reports viability index results from the supplement of paper PMC4723716.

± gives the uncertainty stated by the source. Over roughly 9,900 compounds, “viability index relative to DMSO control” has its median near 1; the lowest 2% begin near 0.85. Some of the results follow.

In the experiment the test system is Plasmodium falciparum NF54 stage V gametocytes. Kind of experiment: viability index relative to DMSO control (fraction); higher = less gametocyte killing. As to conditions: 2.5 µM, library set: Broad Institute DOS, incubation time: 72 h. The method, boiled down: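 P. falciparum NF54 stage V gametocytes in serum-free screening medium (0.75% gametocytemia, 1.25% hematocrit, 10 µl) were incubated with compound at 2.5 µM in 1,536-well plates for 72 hr at 37°C under low oxygen. Then 3 µl of 2.5 µM MitoTracker Red CMXRos plus 0.13% saponin was added for one to two hours. One field per well was imaged, 20–70 µm2 red particles were counted, and the viability index was the count divided by the plate mean of DMSO wells.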
`C[C@@H]1C/C=C/C[C@@H](c2ccc3c(c2)OCO3)NC(=O)[C@@H](C)N(C)C(=O)c2ccccc2O1.C[C@@H]1C/C=C\C[C@@H](c2ccc3c(c2)OCO3)NC(=O)[C@@H](C)N(C)C(=O)c2ccccc2O1` registered a viability index of 1.02 ± 0.023.

Molecule `C[C@@H]1CCCCO[C@@H](CN(C)Cc2ccc(C(F)(F)F)cc2)[C@@H](C)CN([C@H](C)CO)C(=O)c2cc(NC(=O)Nc3cccc4ccccc34)ccc2O1` registered a viability index of 1.07 ± 0.06.

As for `COc1ccccc1NC(=O)N1C[C@H]2[C@@H](c3ccccc31)[C@@H](CO)N2C(=O)C1CCCC1`, the viability index came out at 1.02 ± 0.069.

`Cc1ccccc1S(=O)(=O)N1CCCCN2[C@H](C1)[C@@H](c1ccc(C#CCN(C)C)cc1)[C@@H]2CO` yielded a viability index of 1.023 ± 0.0063.

The molecule `Cc1noc(C)c1NC(=O)Nc1ccc2c(c1)CC(=O)N([C@H](C)CO)C[C@H](C)[C@@H](CN(C)Cc1ccc(C(F)(F)F)cc1)O2` had a viability index of 0.9165 ± 0.004.

In turn, `CN1C(=O)c2cc(NC(=O)c3ccc(F)c(F)c3)ccc2OC[C@H]2O[C@H](CC(=O)N3CCCCC3)CC[C@@H]21` yielded a viability index of 1 ± 0.018.

The molecule `Cc1noc(C)c1S(=O)(=O)Nc1cccc2c1O[C@@H](CN(C)Cc1ccc(C(F)(F)F)cc1)[C@@H](C)CN([C@H](C)CO)C2=O` showed a viability index of 1.04 ± 0.033.

Molecule `O=C(Nc1cc(F)ccc1F)N[C@@H]1CC[C@H](CCn2cc(C3CCCCC3)nn2)O[C@H]1CO` returned a viability index of 1.08 ± 0.071.

In turn, `COc1ccc2c3c([nH]c2c1)[C@H](CO)N(C[C@]31CN(CC2CC2)C1)C(=O)Nc1cccc(F)c1` registered a viability index of 0.933 ± 0.08.

`CCC(=O)N1CC(=O)N2[C@H](C1)[C@H](c1ccc(-c3ccc(C#N)cc3)cc1)[C@@H]2CO` displayed a viability index of 1.02 ± 0.044.

`COc1ccccc1NC(=O)N1C[C@@H](O)COC[C@@H]2O[C@@H](CC(=O)N3CCC(Cc4ccccc4)CC3)CC[C@H]21` returned a viability index of 0.973 ± 0.053.

Molecule `O=C(c1ccccn1)N1C[C@H]2[C@@H](c3ccccc31)[C@H](CO)N2C(=O)Nc1ccccc1Cl` came in with a viability index of 1.01 ± 0.037.

`CC(C)C#Cc1ccc([C@@H]2[C@H](CO)N3C(=O)CN(C(=O)NC4CCCC4)C[C@@H]23)cc1` returned a viability index of 1.01 ± 0.023.

`Cc1cc(C(=O)Nc2ccc3c(c2)C(=O)N(C)[C@@H]2CC[C@H](CC(=O)O)O[C@@H]2CO3)no1` showed a viability index of 0.861 ± 0.044.

The molecule `CCS(=O)(=O)N1CCCCN2[C@H](CO)[C@@H](c3ccc(-c4ccc(C(=O)N(C)C)cc4)cc3)[C@H]2C1` displayed a viability index of 1.11 ± 0.14.

The molecule `O=C1CN(S(=O)(=O)Cc2ccccc2)C[C@H]2[C@@H](c3ccc(C#Cc4ccccc4)cc3)[C@H](CO)N12` showed a viability index of 1.03 ± 0.046.

The molecule `O=C([C@H]1[C@H](CO)[C@H]2Cn3c(cccc3=O)[C@@H]1N2S(=O)(=O)c1ccccc1F)N1CCCCC1` showed a viability index of 1.13 ± 0.045.

`O=C(C[C@@H]1C=C[C@H](NC(=O)c2ccc3c(c2)OCO3)[C@H](CO)O1)NC1Cc2ccccc2C1` returned a viability index of 0.985 ± 0.063.

The molecule `CS(=O)(=O)N1[C@H](CO)[C@@H](c2ccc(-c3ccccc3F)cc2)[C@@H]1C#N` registered a viability index of 1.16 ± 0.027.

`O=C(C1CCC1)N1CCCCN2[C@@H](CO)[C@@H](c3ccc(-c4ccncc4)cc3)[C@@H]2C1`: the viability index was 1.097 ± 0.0087.

The molecule `O=C(CN1CCOCC1)N[C@@H]1CC[C@H](CCn2cc(C3CC3)nn2)O[C@@H]1CO` came in with a viability index of 1.17 ± 0.041.

In the case of `C[C@H](CO)N1C[C@H](C)[C@@H](CN(C)C(=O)Nc2cccc(F)c2)Oc2cc(C#CC3(O)CCCC3)ccc2S1(=O)=O`, the viability index came to 1.08 ± 0.013.

On to `O=C(C1CCOCC1)N1CC(=O)N2[C@H](CO)[C@H](c3ccc(C#CC4CCCCC4)cc3)[C@@H]2C1`, for which the viability index was 1.06 ± 0.036.

`O=C(C[C@H]1C=C[C@H](NS(=O)(=O)c2ccccc2)[C@@H](CO)O1)NCCN1CCCCC1` came in with a viability index of 1.03 ± 0.054.

In the case of `C[C@H](CO)N1C[C@H](C)[C@H](CN(C)S(=O)(=O)c2cccc(C#N)c2)OCc2ccccc2-c2ccccc2C1=O`, the viability index stood at 0.965 ± 0.052.

For `CC(=O)N1C[C@H]2[C@@H](c3ccccc31)[C@@H](CO)N2Cc1ccc(Cl)cc1`, the viability index came to 0.97 ± 0.12.

In turn, `CCS(=O)(=O)Nc1ccc2c(c1)C(=O)N(C)[C@H]1CC[C@H](CC(=O)NC3CCCCC3)O[C@H]1CO2` showed a viability index of 1.062 ± 0.0022.

Turning to `N#C[C@H]1[C@@H](c2ccccc2C2=CCCCC2)[C@@H](CO)N1C(=O)c1ccccn1`, the viability index came out at 1.12 ± 0.11.

Take `CO[C@@H](CN(C)CC1CCOCC1)[C@@H](C)CN(C(=O)Nc1ccc(F)cc1)[C@H](C)CO`: the viability index was determined as 1.04 ± 0.013.

Molecule `COc1ccc2c3c([nH]c2c1)[C@@H](CO)N(C[C@]31CCN(CC1)C(=O)Cc1ccncc1)C(=O)Nc1ccc(F)cc1` displayed a viability index of 0.9669 ± 0.006.

In turn, `C[C@@H]1CN([C@@H](C)CO)C(=O)c2cc(NS(=O)(=O)c3cccs3)ccc2O[C@@H](C)CCCCO[C@@H]1CN(C)C(=O)c1ccncc1` yielded a viability index of 1.13 ± 0.027.

With `C[C@@H]1CN([C@@H](C)CO)C(=O)CCCn2cc(nn2)CO[C@@H]1CN(C)S(=O)(=O)c1cccc(C#N)c1`, the viability index came to 1.06 ± 0.048.

The molecule `O=C(Nc1cccc(F)c1)N1C[C@H]2[C@@H](c3ccccc31)[C@@H](CO)N2C(=O)Cc1ccccn1` gave a viability index of 1.05 ± 0.094.

`CN1C(=O)c2cc(NS(C)(=O)=O)ccc2OC[C@H]2O[C@@H](CC(=O)NCc3ccccc3)CC[C@H]21` showed a viability index of 1.049 ± 0.0094.

Regarding `O=C(CC1CC1)N1CC(=O)N2[C@H](C1)[C@@H](c1ccc(C#Cc3cccc(F)c3)cc1)[C@@H]2CO`, the viability index came to 0.964 ± 0.054.

`CN1C(=O)c2cc(NC(=O)Cc3cccs3)ccc2OC[C@@H]2O[C@H](CC(=O)NCc3ccc(-c4ccccc4)cc3)CC[C@H]21`: the viability index amounted to 1.01 ± 0.14.

For the molecule `C[C@H]1CN([C@@H](C)CO)C(=O)c2cc(NC(=O)CCCN(C)C)ccc2O[C@H]1CN(C)Cc1ccc(Cl)c(Cl)c1`, the viability index is 1.023 ± 0.0079.

The molecule `CC(C)(C)S(=O)N1Cc2cc(C(=O)N3CCN(Cc4ccccc4)CC3)nc(-c3cccc(-c4cc5ccccc5o4)c3)c2[C@H]1CCO` (some centres undefined) showed a viability index of 0.7362 ± 0.0068.

Turning to `CCNC(=O)C[C@@H]1CC[C@@H]2[C@H](COC[C@H](O)CN2C(=O)c2ccccn2)O1`, the viability index was 1.05 ± 0.038.

`CN(C)CC(=O)N1[C@@H](CO)[C@@H](c2ccccc2)C12CN(C(=O)c1ccc(F)cc1)C2` showed a viability index of 1.12 ± 0.012.

As to `CO[C@@H]1CN(C)C(=O)c2ccc(NC(=O)c3cccc(F)c3)cc2OC[C@H](C)NC[C@@H]1C`, the viability index stood at 1.13 ± 0.05.

`CCCNC(=O)N1C[C@@H]2[C@H](c3ccccc31)[C@H](CO)N2C(=O)Nc1ccccc1F` yielded a viability index of 1.1 ± 0.04.

Molecule `CO[C@@H](CN(C)S(=O)(=O)c1ccc(C)cc1)[C@H](C)CN(C(=O)Nc1ccccc1F)[C@@H](C)CO` gave a viability index of 0.961 ± 0.013.

As to `COc1ccccc1NC(=O)N1C[C@H]2[C@@H](c3ccccc31)[C@H](CO)N2Cc1ccc2c(c1)OCO2`, the viability index worked out at 1.01 ± 0.029.
